According to the supplement of paper PMC4604168 (melanoma cell lines):
Some of the results follow. Repeats are few or missing, and single values can be far off.

What was measured:
Test in all cases: cell count relative to DMSO control; melanoma cells; higher = more viable cells
Settings in all cases: library dose: low library concentration; 72 h
WM115 = system: WM115
WM1716 = system: WM1716
WM1745 = system: WM1745
WM3526 = system: WM3526
WM3619 = system: WM3619
WM451Lu = system: WM451Lu
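Also: cell number obtained by counting DAPI-stained nuclei in high-throughput microscope images with image analysis software, screen run in 1,536-well plates.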

| Structure (SMILES) | cell count (WM115) [%] | cell count (WM1716) [%] | cell count (WM1745) [%] | cell count (WM3526) [%] | cell count (WM3619) [%] | cell count (WM451Lu) [%] |
| --- | --- | --- | --- | --- | --- | --- |
| C[As](C)SC[C@H](NC(=O)CC[C@H](N)C(=O)O)C(=O)NCC(=O)O [Darinaparsin] + CN(NC(=O)CC(=O)NN(C)C(=S)c1ccccc1)C(=S)c1ccccc1 [STA4783] (first compound 0.4 µM, partner dose 0.006 µM) | 74 | 72.6 | 34.4 | 99.2 | 69.4 | 110 |
| C[C@]12O[C@H](C[C@]1(O)CO)n1c3ccccc3c3c4c(c5c6ccccc6n2c5c31)CNC4=O [Lestaurtinib] + CC(C)CCN1c2nc(Nc3cc(F)c(O)c(F)c3)ncc2N(C)C(=O)C1C [BID1870] (first compound 0.004 µM, partner dose 0.2 µM) | 90.3 | 111 | 106 | 104 | 108 | 89.1 |
| N.N.[Cl][Pt][Cl] [cisplatin] + C=C(c1ccc(C(=O)O)cc1)c1cc2c(cc1C)C(C)(C)CCC2(C)C [Bexarotene] (first compound 1.6 µM, partner dose 2 µM) | 102 | 95.9 | 108 | 85.6 | 116 | 89.4 |
| C[C@]12O[C@H](C[C@]1(O)CO)n1c3ccccc3c3c4c(c5c6ccccc6n2c5c31)CNC4=O [Lestaurtinib] + COc1cc2c(Oc3ccc4[nH]c(C)cc4c3F)ncnc2cc1OCCCN1CCCC1 [cediranib] (first compound 0.004 µM, partner dose 0.4 µM) | 99.3 | 94 | 107 | 95.7 | 109 | 120 |
| Cn1cc(C2=C(c3cn(C4CCN(Cc5ccccn5)CC4)c4ccccc34)C(=O)NC2=O)c2ccccc21 [Enzastaurin] + Cc1nc(Nc2ncc(C(=O)Nc3c(C)cccc3Cl)s2)cc(N2CCN(CCO)CC2)n1 [dasatanib] (first compound 0.8 µM, partner dose 0.004 µM) | 89.7 | 91.2 | 69.3 | 126 | 77.1 | 95.6 |
